# Test results: PubChem BioAssay AID1240 (Sanford-Burnham Center for Chemical Genomics, 2008)
# Hit rate of the full screen: of about 50,000 compounds, about 800 (1.6%) showed an effect of 50% or more. This is one part of the list.
# Biological target: Bcl-2-like protein 10 (Homo sapiens) (UniProt Q9HD36)
# Test: TR3 peptide-Bcl-B binding displacers, biochemical primary FP assay, phenotype converters (AID 1240);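 note: 0% = Bcl-B with tracer peptide and DMSO and 100% = tracer peptide lacking Bcl-B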
# Conditions: GST-Bcl-B / FITC-TR3 peptide fluorescence polarization; stronger effect = higher value; compound at 3.75 mg/L
# Sequence of UniProt Q9HD36 (Q9HD36 whole entry, looked up): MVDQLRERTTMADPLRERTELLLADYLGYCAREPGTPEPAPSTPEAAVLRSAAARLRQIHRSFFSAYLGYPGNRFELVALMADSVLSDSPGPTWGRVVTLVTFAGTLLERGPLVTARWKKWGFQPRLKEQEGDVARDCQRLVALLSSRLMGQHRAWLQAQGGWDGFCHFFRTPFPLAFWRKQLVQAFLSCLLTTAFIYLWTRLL
row,SMILES,displacement
1,O=C(NNC(=O)c1cccc(Cl)c1)c1cccc(F)c1,-4.7%
2,Cc1ccc(C(=O)Nc2nc(C)c(C)s2)cc1[N+](=O)[O-],3.4%
3,Cc1ccc(OCc2nnc(NC(=O)Nc3ccccc3)s2)cc1,0.8%
4,COc1ccc(C(=O)N/C(=C\c2ccc(-c3cccc(Cl)c3)o2)C(=O)NCCCN2CCOCC2)cc1,11.7%
5,NC(=O)c1cc2nc(-c3ccco3)cc(C(F)(F)F)n2n1,10.7%
6,O=C(Nc1ccn(-c2ccccc2)n1)NS(=O)(=O)c1ccccc1Cl,2.4%
7,CCOC(=O)c1c(C)n(C)c2cc(Br)c(C(=O)Oc3ccccc3)cc12,11%
8,O=C(NNC(=O)c1ccc2ccccc2c1O)c1ccccc1Cl,6.6%
9,CCCc1cc(=O)n2[nH]c(-c3cccc(F)c3)cc2n1,11.9%
10,COc1ccccc1-n1cnc2cc(NC(=O)c3ccc(C)cc3)ccc21,9.4%
11,CN(C)CCN1C(=O)C(=O)/C(=C(/O)c2ccccc2)C1c1ccc(Br)cc1 (stereo not drawn),6.2%
12,Cc1c(-n2c(O)c(C3=c4cc(Br)ccc4=NC3=O)sc2=S)c(=O)n(-c2ccccc2)n1C,-1.5%
13,CCOC(=O)C(Cc1ccccc1)(NC(C)=O)C(=O)OCC,-8.5%
14,Cc1ccsc1/C=C1\SC(=S)N(c2c(C)n(C)n(-c3ccccc3)c2=O)C1=O,6.6%
15,O=C(/C(=C/c1ccccc1[N+](=O)[O-])c1nc2ccccc2s1)c1ccccc1,8.6%
16,CC1(C)CC(=O)C2=C(C1)Nc1ccccc1NC2c1c(F)cccc1Cl (stereo not drawn),2.2%
17,O=C1C(=O)N(c2nccs2)C(c2cccc(Br)c2)/C1=C(\O)c1ccc(F)cc1 (stereo not drawn),11.7%
18,O=C(CSc1nc2ccccc2c(=O)n1Cc1ccccc1)c1ccc(Br)cc1,-9%
19,CC1CCN(CCCCOc2ccccc2C(C)C)CC1,-7.5%
20,O=C(Nc1ccc(N2CCOCC2)cc1)c1cc2ccccc2oc1=O,-1.6%
21,O=C1N(c2ccccc2)C2CS(=O)(=O)CC2N1c1cccc(Cl)c1 (stereo not drawn),-9.1%
22,CCCCOc1ccc(C(=O)N2c3ccccc3CC2C)cc1 (stereo not drawn),6.4%
23,Fc1ccc(-c2nc(-c3cccnc3)no2)cc1,5.2%

row,SMILES,displacement
1,O=C(CC(Nc1ccc2ncccc2c1)c1ccc(F)cc1)c1ccccc1 (stereo not drawn),8.5%
2,COc1ccccc1N1C(=O)c2ccc(C(=O)Nc3ccc(O)cc3C)cc2C1=O,0.7%
3,CSc1ccc(/C=C/C(=O)c2ccc(NC(=O)c3ccccc3F)cc2)cc1,-3%
4,O=C(O)/C=C/c1cccc(NS(=O)(=O)c2ccccc2)c1,2%
5,C=CCc1ccccc1OCCOc1c(Br)cc(/C=C2/SC(=S)N(C)C2=O)cc1OC,13.9%
6,O=C1C(=O)N(CC2CCCO2)C(c2ccc(Cl)cc2)/C1=C(/O)c1ccccc1 (stereo not drawn),-16.7%
7,CCc1nn2c(N)c(/C=C3\C=C(Br)C=CC3=O)c(=O)nc2s1,-5%
8,CCOC(=O)C1=C(C)NC(=O)CC1c1cc2c(cc1Br)OCO2 (stereo not drawn),-6.4%
9,O=C(O)CC1SC(=NC(=O)c2ccco2)N(c2ccccc2)C1=O (stereo not drawn),3.2%
10,COc1cc(C=C2C(=O)c3ccccc3C2=O)ccc1OCc1ccc(I)cc1,-11.5%
11,CCOc1ccc(C(=O)Nc2ccc(C(=O)OC)cc2)cc1Br,-7.2%
12,O=C(/C=C/c1ccccc1)NC(=S)Nc1ccc(-c2nc3ncccc3o2)cc1,12.2%
13,N/C(=N\OC(=O)C(c1ccccc1)c1ccccc1)c1ccccn1,9.5%
14,Cc1ccccc1OCCNc1cc(N2CCOCC2)ccc1[N+](=O)[O-],8.4%
15,C=CCN1C(=O)/C(=C/c2cccc(Br)c2)SC1=S,7.2%
16,CCOC(=O)COc1ccc(/C=c2/sc3nc4cc(C)c(C)cc4n3c2=O)cc1OC,-4.4%
17,Ic1ccc(OCCCCCCN2CCCC2)cc1,14.8%
18,C/C(=N\N1CCN(Cc2ccc(C)cc2)CC1)c1ccncc1,16.9%
19,O=C(c1ccc(O)cc1)c1ccc(Cl)cc1,7.5%
20,COc1ccc(C(=O)Nc2ccc(Br)c(Cl)c2)cc1,-9.2%
21,COc1ccc(C2Nc3ccccc3NC3=C2C(=O)CC(C)(C)C3)cc1O (stereo not drawn),-4%
22,O=C1NC(=S)NC(=O)C1=Cc1cc(Cl)c(OCc2ccccc2F)c(Cl)c1,-0.6%
23,C=CCN1C(=O)S/C(=C/c2cc(Br)c(O)c(OCC)c2)C1=O,-21.9%

row,SMILES,displacement
1,CCOc1ccc2nc(SCC(=O)Nc3cc(C)cc(C)c3)sc2c1,-6%
2,COc1cc(/C=C2\C(=O)N(c3nc(-c4ccc(Cl)cc4)cs3)N=C2C)cc(OC)c1OC,11.6%
3,NC(=S)N(C1=NCCCCC1)c1ccc(Br)cc1,-5.6%
4,CC1=CC2(C#N)C3(N=C(N)C2(C#N)C(c2ccccc2)N1)OCCO3 (stereo not drawn),11.6%
5,O=C(NC(=S)Nc1ccc(Br)cn1)c1ccc(Cl)cc1,3.5%
6,COc1ccc(C=C2C(=O)N(c3ccccc3)C(=S)N(c3ccccc3)C2=O)c(OC)c1,10.9%
7,Cc1ccc(N=Cc2cc(Cl)cc(Cl)c2O)cc1F,-8.4%
8,Cc1cccc(C2OC3(C(=O)c4ccccc4C3=O)C3C(=O)N(c4ccc(C)c(Cl)c4)C(=O)C23)c1 (stereo not drawn),14.4%
9,CCOc1ccccc1NC(=O)C(=O)NCc1ccncc1,8.9%
10,COc1ccc(N(C(=O)Nc2ccccc2Cl)C(CC(=O)C2CC2)c2ccccc2)cc1 (stereo not drawn),4.4%
11,COc1cc([N+](=O)[O-])ccc1NC(=O)COc1ccc(Br)cc1,-45.3%
12,Cn1ccnc1SCC(=O)Nc1ccccc1F,6.5%
13,CCCOC(=O)c1ccc(NC(=O)COc2ccc(CC)cc2)cc1,-1.2%
14,O=C1c2ccccc2C(=O)c2c1cccc2S(=O)(=O)NNc1ccccc1,10.9%
15,Cc1ccccc1C(=O)Nc1cccc(NC(=O)c2ccc(-c3ccc([N+](=O)[O-])cc3C)o2)c1,11.5%
16,O=C1C2C3C=CC(O3)C2C(=O)N1c1ccccc1I (stereo not drawn),17.8%
17,CC1=C(C(=O)Nc2ccccc2)C(c2ccc([N+](=O)[O-])cc2)N2C(=O)CSC2=N1 (stereo not drawn),4.7%
18,Cc1cc(Cl)ccc1OCC(=O)NNC(=O)c1cccnc1,-2.4%
19,C=CCOC(=O)C1CC=CCC1C(=O)Nc1nc2ccc(OCC)cc2s1 (stereo not drawn),5.8%
20,Cc1ccc(-c2nc3cc(Cl)ccc3o2)cc1NC(=O)/C=C/c1cccc([N+](=O)[O-])c1,-18.8%
21,CCOc1ccccc1NC(=O)c1c(NC(=O)C(F)(F)F)sc2c1CCCCC2,-2.4%
22,O=C(Cc1ccc(Br)cc1)N1CCN(c2ccc(F)cc2)CC1,6.2%
